Experimental data as given in publication PMC4336329 (PLoS ONE, 2015).
The campaign covered roughly 310,000 compounds. About 14,000 (4.5%) showed an effect of 50% or more. Effects have a minus sign here. Some of the results follow.

Molecular target: human ether-à-go-go-related gene (hERG) potassium channel (human, UniProt Q12809)
Assay: primary screen, population patch clamp on CHO cells stably expressing hERG
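Also: peak tail current of the secondary pulse compared with the same well before compound.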

Chain of human ether-à-go-go-related gene (hERG) potassium channel (Q12809 whole entry, looked up): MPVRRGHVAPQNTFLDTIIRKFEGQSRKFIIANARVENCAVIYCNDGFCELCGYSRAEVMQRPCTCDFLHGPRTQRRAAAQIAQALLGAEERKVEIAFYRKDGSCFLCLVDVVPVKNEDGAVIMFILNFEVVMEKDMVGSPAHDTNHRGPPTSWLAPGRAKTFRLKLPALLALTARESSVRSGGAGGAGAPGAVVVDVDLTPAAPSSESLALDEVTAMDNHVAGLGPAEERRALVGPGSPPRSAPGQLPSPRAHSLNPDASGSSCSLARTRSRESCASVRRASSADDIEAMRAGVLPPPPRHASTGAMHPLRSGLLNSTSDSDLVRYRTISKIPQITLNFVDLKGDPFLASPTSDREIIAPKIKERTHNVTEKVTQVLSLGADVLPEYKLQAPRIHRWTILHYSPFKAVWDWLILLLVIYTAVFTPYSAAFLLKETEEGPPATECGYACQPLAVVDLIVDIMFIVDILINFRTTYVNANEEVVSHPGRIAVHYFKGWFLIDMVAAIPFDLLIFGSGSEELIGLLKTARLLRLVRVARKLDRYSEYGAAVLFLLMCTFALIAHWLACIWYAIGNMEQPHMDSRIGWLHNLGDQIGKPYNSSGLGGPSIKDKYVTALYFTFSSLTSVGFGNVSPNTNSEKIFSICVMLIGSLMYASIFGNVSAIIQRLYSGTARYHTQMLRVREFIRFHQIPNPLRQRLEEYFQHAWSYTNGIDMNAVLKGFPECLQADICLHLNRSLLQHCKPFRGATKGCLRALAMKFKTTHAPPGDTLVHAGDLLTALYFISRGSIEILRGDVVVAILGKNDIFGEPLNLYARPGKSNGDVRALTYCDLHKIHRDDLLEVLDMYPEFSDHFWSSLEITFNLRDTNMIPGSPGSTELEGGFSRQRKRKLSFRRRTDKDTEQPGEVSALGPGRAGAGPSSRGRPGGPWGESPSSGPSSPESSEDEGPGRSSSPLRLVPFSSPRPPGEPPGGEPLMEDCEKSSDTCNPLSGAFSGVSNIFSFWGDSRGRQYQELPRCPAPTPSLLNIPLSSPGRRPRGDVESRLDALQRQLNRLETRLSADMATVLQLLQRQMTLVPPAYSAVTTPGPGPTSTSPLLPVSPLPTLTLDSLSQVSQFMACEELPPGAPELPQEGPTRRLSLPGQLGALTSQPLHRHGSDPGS

| SMILES | hERG current change (%, negative = inhibition) at 10uM [%] |
| --- | --- |
| O=C(CN1CCOCC1)Nc1ccc(Br)cn1 | -8.93 |
| Cc1cccc(NC(=O)CN2CCN(C(=O)c3cnn(Cc4ccccc4)c3)CC2)c1C | -87.2 |
| Cc1ccccc1Nc1nnc(SCC(=O)NCc2cccs2)s1 | -5.79 |
| S=c1[nH]c2ccccc2[nH]1 | 4.88 |
| O=C(Nc1ccc2oc(-c3ccncc3)nc2c1)c1c(F)c(F)c(F)c(F)c1F | 12.4 |
| COc1ccccc1CN1C[C@@H]2C[C@@H](C3=Cc4cc(Cl)ccc4OC3)N3CCC[C@@]23C1=O | -41.4 |
| CCOC(=O)CC1=Nc2ccccc2NC(=O)C1 | 2.57 |
| Cc1oc(-c2ccc(Cl)cc2)nc1CN1CCC(C(=O)NCCCN2CCCC2=O)CC1 | -33.9 |
| CCn1c(SCC(=O)N2CCOCC2)nc2oc3c(Cl)cc(Cl)cc3c(=O)c2c1=O | -49 |
| COc1cc2c(cc1NC(=O)CN1C(=O)NC3(CCc4ccccc43)C1=O)oc1ccccc12 (stereo not drawn) | 7.1 |
| O=C(COc1ccc(F)cc1)c1c(O)cc(O)cc1O | 3.74 |
| C[C@H]1CN(C2CCCCC2)C(=O)[C@@H]1CC(=O)NCc1ccccc1 | -6.72 |
| Cc1ccc(C)c(NC(=O)C2CCC(C)(C(=O)O)C2(C)C)c1 (stereo not drawn) | -18.4 |
| CC(=O)Nc1ccc(NC(=O)C(=O)c2cn(CC(=O)N3CCCC3)c3ccccc23)cc1 | 18 |
| COC(=O)c1c(C)[nH]c(C)c1-c1ccc([N+](=O)[O-])cc1 | 2.12 |
| Cc1cccn2c(=O)nc(SCC(=O)N3CCC(C)CC3)nc12 | -39.5 |
| CCOc1ccccc1NC(=O)C1CCN(S(C)(=O)=O)CC1 | 1.63 |
| Cn1nnnc1SCC(=O)NC(C)(C)C | -3.45 |
| Cc1cc(C)c(C(N)=O)c(Nc2ccc3c(c2)OCCO3)n1 | 0.162 |
| CC(C)(C)c1cc(C(=O)N2CCN(c3ncccn3)CC2)ccn1 | -11.7 |
| O=C(c1cc2ccccc2o1)N1CCN(S(=O)(=O)/C=C/c2ccccc2)CC1 | -30.8 |
| OCCCNc1c2ccccc2nc2ccccc12 | -65.6 |
| O=S(=O)(NCCc1csc(-c2cccnc2)n1)c1cccs1 | -13.7 |

| SMILES | hERG current change (%, negative = inhibition) at 10uM [%] |
| --- | --- |
| O=C(NCCCl)C1Cc2c(ccc3ccccc23)O1 (stereo not drawn) | 7.97 |
| CCSc1nnc(NC(=O)C2CCCCC2C(=O)O)s1 (stereo not drawn) | 7.05 |
| O=S1(=O)N=C(SCCO)c2ccccc21 | 2.57 |
| COc1cccc(CNC(=O)c2cccc(NC(=O)C3=C(C)OCCS3)c2)c1 | -24.1 |
| CCOc1ccc(NC(=O)c2cccnc2SC)cc1 | 21 |
| Cc1nnsc1C(=O)N/N=C/c1ccc(OC(F)(F)F)cc1 | 19.9 |
| O=C(CCC1CCCCC1)Nc1c2c(nn1-c1ccc(F)cc1)CS(=O)C2 (stereo not drawn) | -12.5 |
| Cc1cccc(NC(=O)CN2CCOCC2)c1C | 13.9 |
| O=C(O)c1ccc(COCC(F)(F)C(F)F)o1 | 16 |
| COCCN1C(=O)c2[nH]nc(-c3ccccc3O)c2C1c1ccc(OC)cc1 (stereo not drawn) | -38.5 |
| COc1ccc2c(c1)c(C(=O)N/N=C/c1ccc(Cl)cc1)c(C)n2C | -58.6 |
| CN(C)S(=O)(=O)c1cccc(C(=O)Nc2ccc(N3CCOCC3)cc2)c1.Cl | 0.0464 |
| C=CCSc1nnc2n(CCc3ccccc3)c(=O)c3c4c(sc3n12)COC(C)(C)C4 | 4.1 |
| COc1ccc(C2C(C(C)=O)=C(O)C(=O)N2c2nccs2)cc1OC (stereo not drawn) | -10.5 |
| CCCCNC(=S)N=Nc1c(O)n(Cc2ccccc2)c2ccccc12 | -12 |
| CCOC(=O)c1sc(N/N=C/c2ccc(N(C)C)cc2)nc1C | 13.9 |
| COc1cc2c(cc1NC(=O)C(C)OC(=O)c1ccc(S(=O)(=O)Nc3ccccc3Cl)cc1)oc1ccccc12 (stereo not drawn) | 21.8 |
| CC(=O)N1CCOc2ccc(S(=O)(=O)N3CCC(C(=O)Nc4cc(C)cc(C)c4)CC3)cc21 | -16.2 |
| O=C(OCc1cc(Cl)ccc1OC(F)F)c1cncc(Br)c1 | 5.33 |
| COc1ccccc1NC(=O)CSc1nc(SC)ns1 | -14.5 |
| CC(=O)Nc1ccc(N(C(=O)c2ccco2)C(C(=O)NC2CCCC2)c2ccc(N3CCOCC3)cc2)cc1 (stereo not drawn) | 10.8 |
| CCCc1cc(=O)oc2cc(OCC(=O)NCCCN3CCOCC3)ccc12 | -17.9 |
| COc1cc(Cl)c(C)cc1NC(=O)CSc1ccccc1 | 5.58 |

| SMILES | hERG current change (%, negative = inhibition) at 10uM [%] |
| --- | --- |
| CCOC(=O)C1C(=O)CC(=O)CC1CC(C)SCC (stereo not drawn) | 19.7 |
| O=C(Cn1c(=O)sc2ccccc21)Nc1ccc(S(=O)(=O)N2CCCC2)cc1 | -3.11 |
| Cl.O=[N+]([O-])c1cc(S(=O)(=O)NCCCN2CCOCC2)ccc1Cl | -10.2 |
| CCCCn1c(SCC(=O)NC2CCCC2)nc2ccccc2c1=O | -4.43 |
| O=C(c1ccc(CN2CCOCC2)cc1)N1CCN(c2ccccc2)CC1 | 3.02 |
| Cc1ccc(N2C(=O)[C@@H]3[C@H](C2=O)[C@H]2C=CC=NN2[C@@H]3C(=O)Nc2ccccc2)cc1 | 7.5 |
| COc1ccc(NC(=O)CSc2nc3ccccc3nc2N2CCCC2)cc1 | -0.542 |
| CN1CCN(C(=S)Nc2cccc(Cl)c2)CC1 | 1.82 |
| O=C(NC(=S)N1CCN(c2ccc(Cl)cc2[N+](=O)[O-])CC1)c1cccs1 | -30 |
| COC(=O)CCCC1=CC2=CC(=O)C(C)(OC(=O)c3cccs3)C(=O)C2=CN1CC1CC1 (stereo not drawn) | 9.4 |
| Cc1cccc(N2C(=S)N=C(Nc3c(C)cccc3C)C23CCOC(C)(C)C3)c1 (stereo not drawn) | 25.7 |
| Nc1ccc(S(=O)(=O)NNC(=O)C(=O)NNc2ccccc2)cc1 | 3.21 |
| O=C(Nc1c[nH]c(=O)[nH]c1=O)c1cccc(F)c1 | 7.17 |
| Cc1nn(Cc2ccccc2)c(Cl)c1C(=O)OC(C)C(=O)Nc1ccc(F)cc1Cl (stereo not drawn) | 11.2 |
| O=C(Cn1c(=O)n(CC2CCCO2)c(=O)c2ccccc21)c1ccccc1 (stereo not drawn) | 4.49 |
| O=C(c1ccccc1F)N1CCCC(C(=O)N2CCc3ccccc3C2)C1 (stereo not drawn) | -8.64 |
| Cc1cccc(C)c1NC(=O)N1C2CCC1CC(O)(c1cccnc1)C2 (stereo not drawn) | 20.2 |
| COc1ccc(C(=O)NN2CCCCC2)cc1OC | 4.62 |
| Nc1nn(-c2ccccc2)c(N)c1N=Nc1ccccc1 | -16.4 |
| CCOC(=O)CSc1nnc(NCC(=O)OC)c(=O)[nH]1 | 25.5 |
| Br.CN(C)CCNc1cc(-c2ccncc2)nc2ccccc12 | -22.3 |
| CCN1CCN(C(=O)Nc2cccc(C(F)(F)F)c2)CC1 | 9.24 |
| CC(=C/c1ccccc1)/C=N/NC(=O)c1nnn(-c2nonc2N)c1CN1CCC(C)CC1 | 19.9 |

| SMILES | hERG current change (%, negative = inhibition) at 10uM [%] |
| --- | --- |
| Cc1ccc2cc(C(=O)O)c(C)nc2c1 | 11.6 |
| CCOC(=O)COc1cccc2c(=O)n(CC(=O)N3CCCCC3)ccc12 | -2.54 |
| O=C(COC(=O)c1cccnc1Nc1cccc(C(F)(F)F)c1)NCCN1C(=O)CSC1=O | -58.7 |
| Cc1ccc(C)c(NC(=O)COC(=O)CCNC(=O)c2ccco2)c1 | 3.11 |
| Cc1nc(C(=O)NCc2ccccc2)sc1C1(C)CC(c2cccnc2)=NO1 (stereo not drawn) | -16.8 |
| COc1ccc(NC(=O)COC(=O)CC2CC3CCC2C3)c([N+](=O)[O-])c1 (stereo not drawn) | 8.39 |
| CC(=O)Nc1ccc(NC(=O)C(C)OC(=O)CC2CCCC2)cc1 (stereo not drawn) | 1.44 |
| O=C1CSc2ccc(C(=O)N3CCN(c4ccccn4)CC3)cc2N1 | -20.5 |
| O=C(Oc1ccc2c(c1)OCO2)C12CC3CC(CC(C3)C1)C2 | 23 |
| CCc1ccc(NC(=O)C2CCN(S(=O)(=O)c3ccc4[nH]c(=O)ccc4c3)CC2)cc1 | 3.6 |
| CCCCC1(Br)C(=O)N(c2ccccc2)N(c2ccccc2)C1=O | 7.13 |
| N#CC1=C(N)Nc2nc3ccccc3n2C1c1ccc(F)cc1 (stereo not drawn) | 25.6 |
| COc1ccc(C/C(C)=N/NC(=O)c2cccnc2)cc1 | -14.9 |
| CCn1cc(CN2CCC(Oc3ccc(C(=O)N4CCCCC4)cc3)CC2)cn1 | -5.09 |
| O=C(CS(=O)(=O)Cc1ccccc1)NCc1ccco1 | 12.3 |
| Cc1nc(Nc2ccc(S(N)(=O)=O)cc2)sc1C(=O)Nc1ccccc1 | 11.2 |
| COc1ccc2cc(C(=O)N3CCc4ccccc43)[nH]c2c1 | 16 |
| COc1ccc2oc(C(=O)Nc3nc(-c4ccccn4)cs3)c(C)c2c1 | 2.33 |
| COc1ccc(C2CC(C(F)(F)F)n3nc(C(=O)O)c(Br)c3N2)cc1 (stereo not drawn) | 20.8 |
| C=CC[n+]1c(C)csc1Nc1ccc(C(=O)O)cc1.[Br-] | 8.51 |
| COc1ccc2cc(C3NC(=O)c4ccccc4N3)c(Cl)nc2c1 (stereo not drawn) | 7.78 |
